Test results as given in the supplement of paper PMC8728848.
The other results are listed elsewhere or left out.

Assays:
Assay in all cases: glycan array binding signal (z-score within array); higher = stronger binding
Conditions in all cases: glycan notation: IUPAC condensed, linker removed; mutation: R85A
Fuc(a1-2)Gal = molecular target: Fuc(a1-2)Gal
Method in brief: (§1)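 The binding signal is a Z-score computed within each array and averaged over linkers. Arrays of the same protein sequence at different concentrations or buffers were also averaged together. Data originate from 3228 arrays in the Consortium for Functional Glycomics database, kept only where the protein sequence was available.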

Fuc(a1-2)Gal(b1-3)GalNAc = molecular target: Fuc(a1-2)Gal(b1-3)GalNAc
Method in brief: as §1

[1] = molecular target: Fuc(a1-2)Gal(b1-3)GalNAc(a1-3)[Fuc(a1-2)]Gal(b1-4)Glc
Method in brief: as §1

[2] = molecular target: Fuc(a1-2)Gal(b1-3)GalNAc(a1-3)[Fuc(a1-2)]Gal(b1-4)GlcNAc
Method in brief: as §1

[3] = molecular target: Fuc(a1-2)Gal(b1-3)GalNAc(b1-3)Gal
Method in brief: as §1

[4] = molecular target: Fuc(a1-2)Gal(b1-3)GalNAc(b1-3)Gal(a1-4)Gal(b1-4)Glc
Method in brief: as §1

[5] = molecular target: Fuc(a1-2)Gal(b1-3)GalNAc(b1-4)[Neu5Ac(a2-3)]Gal(b1-4)Glc
Method in brief: as §1

Fuc(a1-2)Gal(b1-3)GlcNAc = molecular target: Fuc(a1-2)Gal(b1-3)GlcNAc
Method in brief: as §1

[6] = molecular target: Fuc(a1-2)Gal(b1-3)GlcNAc(b1-2)Man(a1-3)[Fuc(a1-2)Gal(b1-3)GlcNAc(b1-2)Man(a1-6)]Man(b1-4)GlcNAc(b1-4)GlcNAc
Method in brief: as §1

[7] = molecular target: Fuc(a1-2)Gal(b1-3)GlcNAc(b1-3)Gal(b1-4)Glc
Method in brief: as §1

[8] = molecular target: Fuc(a1-2)Gal(b1-3)GlcNAc(b1-3)[Fuc(a1-3)[Gal(b1-4)]GlcNAc(b1-6)]Gal(b1-4)Glc
Method in brief: as §1

[9] = molecular target: Fuc(a1-2)Gal(b1-3)[Fuc(a1-4)]GlcNAc
Method in brief: as §1

[10] = molecular target: Fuc(a1-2)Gal(b1-3)[Fuc(a1-4)]GlcNAc(b1-2)Man(a1-3)[Fuc(a1-2)Gal(b1-3)[Fuc(a1-4)]GlcNAc(b1-2)Man(a1-6)]Man(b1-4)GlcNAc(b1-4)GlcNAc
Method in brief: as §1

[11] = molecular target: Fuc(a1-2)Gal(b1-3)[Fuc(a1-4)]GlcNAc(b1-3)[Fuc(a1-3)[Gal(b1-4)]GlcNAc(b1-6)]Gal(b1-4)Glc
Method in brief: as §1

[12] = molecular target: Fuc(a1-2)Gal(b1-3)[Fuc(a1-4)]GlcNAc(b1-3)[Gal(b1-4)GlcNAc(b1-6)]Gal(b1-4)Glc
Method in brief: as §1

Fuc(a1-2)Gal(b1-4)Glc = molecular target: Fuc(a1-2)Gal(b1-4)Glc
Method in brief: as §1

Fuc(a1-2)Gal(b1-4)Glc6S = molecular target: Fuc(a1-2)Gal(b1-4)Glc6S
Method in brief: as §1

Fuc(a1-2)Gal(b1-4)GlcNAc = molecular target: Fuc(a1-2)Gal(b1-4)GlcNAc
Method in brief: as §1

[13] = molecular target: Fuc(a1-2)Gal(b1-4)GlcNAc(b1-2)Man(a1-3)[Fuc(a1-2)Gal(b1-4)GlcNAc(b1-2)Man(a1-6)]Man(b1-4)GlcNAc(b1-4)GlcNAc
Method in brief: as §1

[14] = molecular target: Fuc(a1-2)Gal(b1-4)GlcNAc(b1-3)Gal(b1-4)GlcNAc
Method in brief: as §1

[15] = molecular target: Fuc(a1-2)Gal(b1-4)GlcNAc(b1-3)Gal(b1-4)GlcNAc(b1-3)Gal(b1-4)GlcNAc
Method in brief: as §1

[16] = molecular target: Fuc(a1-2)Gal(b1-4)GlcNAc(b1-3)GalNAc
Method in brief: as §1

[17] = molecular target: Fuc(a1-2)Gal(b1-4)GlcNAc6S
Method in brief: as §1

[18] = molecular target: Fuc(a1-2)Gal(b1-4)[Fuc(a1-3)]GlcNAc
Method in brief: as §1

[19] = molecular target: Fuc(a1-2)Gal(b1-4)[Fuc(a1-3)]GlcNAc(b1-2)Man(a1-3)[Fuc(a1-2)Gal(b1-4)[Fuc(a1-3)]GlcNAc(b1-2)Man(a1-6)]Man(b1-4)GlcNAc(b1-4)GlcNAc
Method in brief: as §1

[20] = molecular target: Fuc(a1-2)Gal(b1-4)[Fuc(a1-3)]GlcNAc(b1-3)Gal(b1-4)[Fuc(a1-3)]GlcNAc
Method in brief: as §1

[21] = molecular target: Fuc(a1-2)Gal(b1-4)[Fuc(a1-3)]GlcNAc(b1-3)Gal(b1-4)[Fuc(a1-3)]GlcNAc(b1-3)Gal(b1-4)[Fuc(a1-3)]GlcNAc
Method in brief: as §1

Fuc(a1-2)Gal6S(b1-4)Glc = molecular target: Fuc(a1-2)Gal6S(b1-4)Glc
Method in brief: as §1

[22] = molecular target: Fuc(a1-2)Gal6S(b1-4)Glc6S
Method in brief: as §1

[23] = molecular target: Fuc(a1-2)Gal6S(b1-4)GlcNAc
Method in brief: as §1

Fuc(a1-2)[Gal(a1-3)]Gal = molecular target: Fuc(a1-2)[Gal(a1-3)]Gal
Method in brief: as §1

[24] = molecular target: Fuc(a1-2)[Gal(a1-3)]Gal(b1-3)GlcNAc
Method in brief: as §1

[25] = molecular target: Fuc(a1-2)[Gal(a1-3)]Gal(b1-3)GlcNAc(b1-2)Man(a1-3)[Fuc(a1-2)[Gal(a1-3)]Gal(b1-3)GlcNAc(b1-2)Man(a1-6)]Man(b1-4)GlcNAc(b1-4)GlcNAc
Method in brief: as §1

[26] = molecular target: Fuc(a1-2)[Gal(a1-3)]Gal(b1-4)Glc
Method in brief: as §1

[27] = molecular target: Fuc(a1-2)[Gal(a1-3)]Gal(b1-4)GlcNAc
Method in brief: as §1

[28] = molecular target: Fuc(a1-2)[Gal(a1-3)]Gal(b1-4)GlcNAc(b1-2)Man(a1-3)[Fuc(a1-2)[Gal(a1-3)]Gal(b1-4)GlcNAc(b1-2)Man(a1-6)]Man(b1-4)GlcNAc(b1-4)GlcNAc
Method in brief: as §1

[29] = molecular target: Fuc(a1-2)[Gal(a1-3)]Gal(b1-4)[Fuc(a1-3)]GlcNAc
Method in brief: as §1

[30] = molecular target: Fuc(a1-2)[Gal(a1-4)]Gal(b1-4)GlcNAc
Method in brief: as §1

[31] = molecular target: Fuc(a1-2)[GalNAc(a1-3)]Gal
Method in brief: as §1

[32] = molecular target: Fuc(a1-2)[GalNAc(a1-3)]Gal(b1-3)GalNAc(a1-3)[Fuc(a1-2)]Gal(b1-4)GlcNAc
Method in brief: as §1

[33] = molecular target: Fuc(a1-2)[GalNAc(a1-3)]Gal(b1-3)GlcNAc
Method in brief: as §1

[34] = molecular target: Fuc(a1-2)[GalNAc(a1-3)]Gal(b1-3)GlcNAc(b1-2)Man(a1-3)[Fuc(a1-2)[GalNAc(a1-3)]Gal(b1-3)GlcNAc(b1-2)Man(a1-6)]Man(b1-4)GlcNAc(b1-4)GlcNAc
Method in brief: as §1

[35] = molecular target: Fuc(a1-2)[GalNAc(a1-3)]Gal(b1-4)Glc
Method in brief: as §1

[36] = molecular target: Fuc(a1-2)[GalNAc(a1-3)]Gal(b1-4)GlcNAc
Method in brief: as §1

[37] = molecular target: Fuc(a1-2)[GalNAc(a1-3)]Gal(b1-4)GlcNAc(b1-2)Man(a1-3)[Fuc(a1-2)[GalNAc(a1-3)]Gal(b1-4)GlcNAc(b1-2)Man(a1-6)]Man(b1-4)GlcNAc(b1-4)GlcNAc
Method in brief: as §1

[38] = molecular target: Fuc(a1-2)[GalNAc(a1-3)]Gal(b1-4)GlcNAc(b1-3)Gal(b1-4)GlcNAc
Method in brief: as §1

[39] = molecular target: Fuc(a1-2)[GalNAc(a1-3)]Gal(b1-4)GlcNAc(b1-3)Gal(b1-4)GlcNAc(b1-3)Gal(b1-4)GlcNAc
Method in brief: as §1

[40] = molecular target: Fuc(a1-2)[GalNAc(a1-3)]Gal(b1-4)[Fuc(a1-3)]GlcNAc
Method in brief: as §1

[41] = molecular target: Fuc(a1-2)[GalNAc(a1-4)]Gal(b1-4)GlcNAc
Method in brief: as §1

[42] = molecular target: Fuc(a1-2)[GalNAc(b1-3)]Gal
Method in brief: as §1

Fuc(a1-3)GlcNAc = molecular target: Fuc(a1-3)GlcNAc
Method in brief: as §1

[43] = molecular target: Fuc(a1-3)[Gal(b1-4)]Glc6S
Method in brief: as §1

[44] = molecular target: Fuc(a1-3)[Gal(b1-4)]GlcNAc
Method in brief: as §1

[45] = molecular target: Fuc(a1-3)[Gal(b1-4)]GlcNAc(b1-2)Man(a1-3)[Fuc(a1-3)[Gal(b1-4)]GlcNAc(b1-2)Man(a1-6)]Man(b1-4)GlcNAc(b1-4)GlcNAc
Method in brief: as §1

[46] = molecular target: Fuc(a1-3)[Gal(b1-4)]GlcNAc(b1-3)Gal(b1-3)[Fuc(a1-4)]GlcNAc
Method in brief: as §1

[47] = molecular target: Fuc(a1-3)[Gal(b1-4)]GlcNAc(b1-3)GalNAc
Method in brief: as §1

[48] = molecular target: Fuc(a1-3)[Gal(b1-4)]GlcNAc(b1-4)Gal(b1-4)[Fuc(a1-3)]GlcNAc
Method in brief: as §1

[49] = molecular target: Fuc(a1-3)[Gal(b1-4)]GlcNAc(b1-4)Gal(b1-4)[Fuc(a1-3)]GlcNAc(b1-4)Gal(b1-4)[Fuc(a1-3)]GlcNAc
Method in brief: as §1

[50] = molecular target: Fuc(a1-3)[Gal(b1-4)]GlcNAc(b1-6)[Gal(b1-3)GlcNAc(b1-3)]Gal(b1-4)Glc
Method in brief: as §1

[51] = molecular target: Fuc(a1-3)[Gal(b1-4)]GlcNAc6S
Method in brief: as §1

B1: rAAL (Agrocybe aegerita), Q6WY08 (protein)
chain: MQGVNIYNISAGTSVDLAAPVTTGDIVTFFSSALNLNAGAGNPNNTTLNLFAENGAYLLHIAFRLQENVIIFNSRQPDGPWLVEQAVSDVANQFAGIDGKAMVTVFDHGDKYQVVINEKTVIQYTKQISGLTLSLSYNATEETSIFSTVVEAVTYTGLALEHHHHHH
glycan array binding signal (z-score) (Fuc(a1-2)Gal): -0.121
glycan array binding signal (z-score) (Fuc(a1-2)Gal(b1-3)GalNAc): -0.127
glycan array binding signal (z-score) [1]: -0.131
glycan array binding signal (z-score) [2]: -0.138
glycan array binding signal (z-score) [3]: -0.127
glycan array binding signal (z-score) [4]: -0.127
glycan array binding signal (z-score) [5]: -0.122
glycan array binding signal (z-score) (Fuc(a1-2)Gal(b1-3)GlcNAc): -0.124
glycan array binding signal (z-score) [6]: -0.123
glycan array binding signal (z-score) [7]: -0.13
glycan array binding signal (z-score) [8]: -0.115
glycan array binding signal (z-score) [9]: -0.136
glycan array binding signal (z-score) [10]: -0.109
glycan array binding signal (z-score) [11]: -0.13
glycan array binding signal (z-score) [12]: -0.141
glycan array binding signal (z-score) (Fuc(a1-2)Gal(b1-4)Glc): -0.134
glycan array binding signal (z-score) (Fuc(a1-2)Gal(b1-4)Glc6S): -0.077
glycan array binding signal (z-score) (Fuc(a1-2)Gal(b1-4)GlcNAc): -0.125
glycan array binding signal (z-score) [13]: -0.124
glycan array binding signal (z-score) [14]: -0.119
glycan array binding signal (z-score) [15]: -0.114
glycan array binding signal (z-score) [16]: -0.106
glycan array binding signal (z-score) [17]: -0.133
glycan array binding signal (z-score) [18]: -0.126
glycan array binding signal (z-score) [19]: -0.138
glycan array binding signal (z-score) [20]: -0.123
glycan array binding signal (z-score) [21]: -0.118
glycan array binding signal (z-score) (Fuc(a1-2)Gal6S(b1-4)Glc): -0.131
glycan array binding signal (z-score) [22]: -0.137
glycan array binding signal (z-score) [23]: -0.121
glycan array binding signal (z-score) (Fuc(a1-2)[Gal(a1-3)]Gal): -0.137
glycan array binding signal (z-score) [24]: -0.118
glycan array binding signal (z-score) [25]: -0.093
glycan array binding signal (z-score) [26]: -0.124
glycan array binding signal (z-score) [27]: -0.127
glycan array binding signal (z-score) [28]: -0.11
glycan array binding signal (z-score) [29]: -0.122
glycan array binding signal (z-score) [30]: -0.119
glycan array binding signal (z-score) [31]: -0.126
glycan array binding signal (z-score) [32]: -0.133
glycan array binding signal (z-score) [33]: -0.127
glycan array binding signal (z-score) [34]: -0.136
glycan array binding signal (z-score) [35]: -0.122
glycan array binding signal (z-score) [36]: -0.125
glycan array binding signal (z-score) [37]: -0.112
glycan array binding signal (z-score) [38]: -0.12
glycan array binding signal (z-score) [39]: -0.122
glycan array binding signal (z-score) [40]: -0.14
glycan array binding signal (z-score) [41]: -0.138
glycan array binding signal (z-score) [42]: -0.136
glycan array binding signal (z-score) (Fuc(a1-3)GlcNAc): -0.134
glycan array binding signal (z-score) [43]: -0.13
glycan array binding signal (z-score) [44]: -0.142
glycan array binding signal (z-score) [45]: -0.138
glycan array binding signal (z-score) [46]: -0.132
glycan array binding signal (z-score) [47]: -0.1
glycan array binding signal (z-score) [48]: -0.114
glycan array binding signal (z-score) [49]: -0.134
glycan array binding signal (z-score) [50]: -0.112
glycan array binding signal (z-score) [51]: -0.137
